PubChem BioAssay AID2101 (National Center for Advancing Translational Sciences (NCATS), 2009)
The campaign covered roughly 330,000 compounds. About 300 (0.091%) were called active. The inconclusive results got no clear call from the source; some entries with a clear call stand among them for comparison. Calls follow the shape of the dose curve; as a rule, active = well fitted inhibition curve with a large enough effect; inconclusive = small, poorly fitted or top-dose-only effect, or effect the other way, or another doubt; inactive = no such curve, though single readings can be large or run the other way. No potency is given beside an inconclusive call; the fits are too rough.

Target: Lysosomal acid glucosylceramidase (Homo sapiens) (UniProt P04062)
Experiment: qHTS Assay for Inhibitors and Activators of N370S glucocerebrosidase as a Potential Chaperone Treatment of Gaucher Disease;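 as to activity change, negative = inhibition: 0% = full enzyme activity and -100% = no enzyme basal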
Details: N370S GC spleen homogenate, 4MU-glucoside fluorescence; activity change, negative = inhibition: at 59.4 µM (top of the series) unless noted
Potency is read from the fitted curve at half-maximal effect.

| Structure (SMILES) | Potency | activity change, negative = inhibition |
| --- | --- | --- |
| CCOC(=O)N1CCN(C(=O)c2cc3c(s2)-c2ccccc2OC3)CC1 | inconclusive [activator, partial curve] | – |
| CCOC(=O)c1ccc(S(=O)(=O)Nc2ccc3cn[nH]c3c2)cc1 | – | inactive: -4.8% |
| CCOc1ccc2c(c1)C(N(CCN1CCOCC1)C(=O)Nc1ccc(OC)cc1OC)CC(C)(C)O2 (stereo not given) | inconclusive [inhibitor, partial curve] | – |
| COc1cccc(-n2c(SCC(=O)NCc3cccs3)nc3ccccc3c2=O)c1 | inconclusive [activator, single point] | – |
| CC(C)n1c(N2CCN(CC(=O)Nc3ccc4c(c3)OCCO4)CC2)nc2ccccc21 | inconclusive [inhibitor, full curve, poor fit] | – |
| Cc1cc(/C=C2\C(=N)N3N=C(S(C)(=O)=O)SC3=NC2=O)c(C)n1Cc1ccccc1 | inconclusive [inhibitor, full curve, poor fit] | – |
| O=C(CCN1CCN(c2ccc([N+](=O)[O-])cc2)CC1)c1ccc(Cl)cc1 | – | inactive: -12.4% |
| COc1ccc(C(NC(=O)CC(C)C)c2c(O)ccc3ccccc23)cc1 (stereo not given) | inconclusive [activator, partial curve] | – |
| O=C(NCCO)c1cc2c([nH]c3ccccc32)c(-c2ccccc2)n1 | inconclusive [activator, single point] | – |
| O=C1CN(C(=O)c2c(F)cccc2F)C(c2ccc(F)cc2)c2cc(Br)ccc2N1 (stereo not given) | inconclusive [inhibitor, partial curve] | – |
| Cc1nnc(NC(=O)c2nc(S(=O)(=O)Cc3ccccc3)ncc2Cl)s1 | – | inactive: 1.19% |
| O=C(Cn1nc(Br)nc1Br)c1ccccc1 | – | inactive: -3.9% |
| COc1cccc(-c2nn(C)c3sc(C(=O)NCc4ccc5c(c4)OCO5)cc23)c1 | inconclusive [activator, partial curve] | – |
| Cc1cc2nc3ccc(=[N+](C)C)cc-3sc2cc1N | – | inactive: 0.782% |
| N#Cc1c(N)nc2c3c(sc(=N)c2c1N)NC(=O)CC3c1ccccc1 (stereo not given) | – | inactive: -2.41% |
| CCCCN(C)CCNC(=O)c1cn(C)c(=O)c2c1c1ccccc1n2C | inconclusive [activator, partial curve] | – |
| Cc1ccc(Nc2ncccc2C(N)=O)cc1[N+](=O)[O-] | – | inactive: 6.48% |
| COC(=O)c1ccc(N2NC(=O)/C(=C/c3cc(OC)c(O)c(OC)c3)C2=O)cc1 | inconclusive [inhibitor, partial curve, poor fit] | – |
| CC(C)(C)c1ccc(NC(=O)COC(=O)C2(C)CC2(Cl)Cl)cc1 (stereo not given) | inconclusive [activator, single point] | – |
| Cc1c(CC(=O)NCC(=O)O)c(=O)oc2cc3c(cc12)CCC(C)(C)O3 | inconclusive [activator, partial curve] | – |
| O=C(OC(C(=O)Nc1ccc(Cl)c(C(F)(F)F)c1)c1ccccc1)C1=COCCO1 (stereo not given) | inconclusive [activator, partial curve] | – |
| Cc1ccc(NNC(=S)Nc2ccc(C(C)C)cc2)c(C)c1 | inconclusive [activator, partial curve] | – |

| Structure (SMILES) | Potency | activity change, negative = inhibition |
| --- | --- | --- |
| COc1cc(/C=N/n2cnnc2)ccc1OS(=O)(=O)c1ccccc1[N+](=O)[O-] | – | inactive: -0.39% |
| O=C(Cc1ccccc1)NN1CCCCC1 | inconclusive [inhibitor, single point] | – |
| COc1ccc([N+](=O)[O-])cc1NCc1ccccc1 | inconclusive [activator, partial curve] | – |
| Cc1onc(-c2ccccc2Cl)c1C(=O)Nc1nnc(-c2ccc(F)cc2)s1 | – | inactive: -2.5% |
| Cc1ccc(NC(=O)c2ccc(NS(=O)(=O)/C=C/c3ccccc3)cc2)nc1 | inconclusive [inhibitor, partial curve] | – |
| COc1ccc(NC(=O)CSc2ncn(-c3ccccc3)n2)cc1Cl | inconclusive [activator, partial curve] | – |
| CN(C)S(=O)(=O)N1CCC(Oc2cccc(C(=O)NCCC3=CCCCC3)c2)CC1 | inconclusive [activator, single point] | – |
| OC(COc1cccc2ccccc12)CN1CCN(c2ccc(Cl)cc2)CC1 (stereo not given) | inconclusive [inhibitor, partial curve] | – |
| Cc1nc2ccccn2c1-c1ccnc(SCc2ccc(Cl)cc2)n1 | inconclusive [activator, full curve, poor fit] | – |
| CNC(=S)N(CCc1c(C)[nH]c2ccc(F)cc12)Cc1cccnc1 | inconclusive [inhibitor, single point] | – |
| CCN(CC)CCCCN1c2ccccc2Sc2ccccc21 | inconclusive [inhibitor, partial curve] | – |
| O=c1cc(N2CCCCC2)c(-c2ccccc2)nn1Cc1ccccc1 | inconclusive [activator, partial curve] | – |
| CN(C)CCCN(C(=O)c1ccc(S(=O)(=O)N2CCCCC2)cc1)c1nc2cc3c(cc2s1)OCO3 | inconclusive [inhibitor, single point] | – |
| CCOC(=O)c1ccccc1N/C=C/C(=O)c1cccs1 | – | inactive: 8.48% |
| CN1CCN(S(=O)(=O)c2ccc(NC(=O)c3cccs3)cc2)CC1 | – | inactive: -27.1% |
| O=C1OCCN1C(=O)[C@H]1[C@H](c2ccccc2)C(c2ccccc2)=NN1c1ccc(Br)cc1 | inconclusive [activator, partial curve] | – |
| O=C(Nc1ccc(N2CCN(C(=O)c3ccco3)CC2)cc1)c1ccco1 | – | inactive: -17.5% |
| Nc1nnnn1/N=C/c1ccccc1OCc1ccccc1 | inconclusive [activator, partial curve] | – |
| COc1ccc(-c2csc(NCc3ccco3)n2)cc1C | – | inactive: 8.78% |
| Cc1cccc(NS(=O)(=O)c2ccc(C(=O)N3CCN(c4ccccc4O)CC3)cc2)c1C | – | inactive: -5.39% |
| CC[C@@H](C(=O)[C@@H](C)[C@@H](O)[C@H](C)CCc1ccc(C)c(O)c1C(=O)O)C1O[C@](CC)(C2CC[C@](O)(CC)[C@H](C)O2)C[C@@H]1C (stereo not given in full) | – | inactive: 0.434% |
| CC1(C)CC(=O)C2=C(C1)N=C1c3ccccc3C(=O)C1C2c1ccc(Cl)cc1 (stereo not given) | active: 14.1 µM | – |

| Structure (SMILES) | Potency | activity change, negative = inhibition |
| --- | --- | --- |
| O=C(COC(=O)C12CC3CC(CC(C3)C1)C2)Nc1ccc([N+](=O)[O-])cc1Br | inconclusive [activator, partial curve, poor fit] | – |
| Cn1c(C(=O)O)cc2c(=O)n3ccccc3nc21 | inconclusive [activator, single point] | – |
| Cc1ccc2cc(CN(CC3CCCO3)C(=S)NCc3ccco3)c(=O)[nH]c2c1C (stereo not given) | inconclusive [activator, single point] | – |
| COc1ccc(-c2nc(NC(=O)c3ccc(OCC(=O)N4CCOCC4)c(OC)c3)sc2C)cc1 | inconclusive [inhibitor, single point] | – |
| COc1ccccc1N(C)S(=O)(=O)c1ccc(C(=O)N(C)Cc2ccc(OC(F)F)cc2)cc1 | inconclusive [inhibitor, partial curve] | – |
| O=C(NC1CC1)C1=C[C@H](c2ccc(Br)cc2)C[C@H](OCc2ccc(CO)cc2)O1 | inconclusive [activator, single point] | – |
| O=C(N/N=C/c1ccccc1O)NC12CC3CC(CC(C3)C1)C2 | inconclusive [activator, partial curve] | – |
| COc1ccc(NC(=O)c2cc3ccccc3cc2OC)cc1 | inconclusive [activator, partial curve] | – |
| Cc1cc2oc(=O)cc(-c3ccccc3)c2c(C)c1-c1ccoc1 | inconclusive [activator, single point] | – |
| Cc1nnc(N/N=C/c2cccc(OCc3ccc(Cl)c(Cl)c3)c2)n1N | inconclusive [inhibitor, single point] | – |
| Nc1nc2nc[nH]c2c(=O)[nH]1 | – | inactive: -8.14% |
| O=C(c1cc2ccccc2o1)N(Cc1ccco1)Cc1cccs1 | inconclusive [activator, single point] | – |
| COc1ccc2c(c1)c(C1=C(c3c[nH]c4ccccc34)C(=O)NC1=O)cn2CCCN(C)C | inconclusive [inhibitor, single point] | – |
| Fc1cccc(-n2ncc(-c3nnnn3-c3ccccc3)c2C(F)(F)F)c1 | inconclusive [activator, partial curve] | – |
| Cc1ccc2cc(CN(Cc3ccco3)C(=S)NCC3CCCO3)c(=O)[nH]c2c1 (stereo not given) | inconclusive [activator, partial curve] | – |
| CCN(CC)C(=O)c1cc2c(=O)n3cccc(C)c3nc2s1 | inconclusive [activator, single point] | – |
| C/C(NC(=O)c1ccccc1)=C1/C(=O)CC2C1C2(C)C (stereo not given) | – | inactive: 20.8% [at 2.35 µM] |
| OC(CNCCc1ccc(C(F)(F)F)cc1)COC(c1ccccc1)c1ccccc1 (stereo not given) | inconclusive [inhibitor, partial curve] | – |
| N#C/C(=C\c1c(Oc2ccc(Cl)cc2)nc2ccccn2c1=O)C(=O)NC1CCS(=O)(=O)C1 (stereo not given) | inconclusive [activator, partial curve] | – |
| COc1ccccc1C1c2ccc3ccccc3c2Oc2ncn(CCN(C)C)c(=N)c21 (stereo not given) | inconclusive [inhibitor, full curve] | – |
| CCC(=O)NC(c1ccccc1)c1c(O)ccc2ccccc12 (stereo not given) | inconclusive [activator, partial curve] | – |
